# In the supplement of paper PMC10185492:
# This is one part of the list. Read counts after selection give these values, which scatter widely.
# Test system: SARS-CoV-2 3CLpro (nsp5)
# Test: substrate phage enrichment score (protease-eluted vs HEPES control, +1 offset) (ratio); higher = better cleaved substrate
# Settings: selection round: 4; protease elution time: 15 min
# Description: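 Random heptapeptide substrate phage display (M13 pIII fusion, heptapeptide between an N-terminal biotinylated AviTag GLNDIFEAQKIEWHE and pIII; phages immobilised on streptavidin) eluted by cleavage with 50 nM protease in 20 mM HEPES at 37 °C. Selected phages were NGS sequenced, and the enrichment score is (reads in protease sample + 1)/(reads in HEPES blank-selection control + 1).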
row,Substance,substrate phage enrichment score
1,SHPSSDW,> 23
2,VTFRLDC,4.75
3,PLTEGRC,> 41
4,MDNQRCH,> 29
5,KRCTKLQ,> 22
6,RVPTADR,10
7,CATNLTG,2.75
8,PAHTDIR,10
9,GPTDFDR,0.014
10,MIRVCCM,6.67
11,GKYNRPT,19
12,RSLDLTA,6.4
13,AGAAHHH,0.591
14,SRLTSSG,5
15,TGSCSLQ,> 23
16,GIPAVSQ,7.33
17,TKYEQPW,0.867
18,SWSLSEF,> 37
19,CKTTGEQ,> 52
20,GSAAAHH,0.692
21,CGKLGVY,2.22
22,SPGHQAP,> 23
23,KCGQWAG,> 24
24,AELMGTS,> 21
25,GGTVLQG,20

row,Substance,substrate phage enrichment score
1,QQEGNVA,> 23
2,DMQAETW,> 29
3,TSKLNDR,> 23
4,LTGVSDR,3
5,DESNDMI,1.5
6,CSAHNMR,16.5
7,GPDAQYR,> 22
8,RAYQLNA,6.62
9,KSHRKQP,1.18
10,VPTTTLQ,58
11,DPQSNRV,2.67
12,LPRTHHS,1.07
13,HYPLMKP,> 152
14,RRGTLTD,10
15,PSSVMMG,> 24
16,TSTGTAT,0.05
17,KAHLKDS,1.25
18,NSAATLS,3.14
19,SAACMKR,> 25
20,QCPRPGQ,8.3
21,AHRSTVT,> 24
22,CNFQGGS,1.6
23,LGGSAAA,2.47
24,SHLSVLH,12.5
25,VTESAPW,2.39

row,Substance,substrate phage enrichment score
1,KGWNTHQ,5.75
2,SKIKQNL,3.6
3,KPNNQGG,> 39
4,ESASDLS,10.5
5,NNPPTRA,3.4
6,VGSAAAH,0.647
7,HHHGAAE,0.312
8,CPLSPYN,0.972
9,RTQLNGC,> 26
10,RQSKLSG,0.2
11,RSWSVHT,0.12
12,ARPTVLQ,> 24
13,RRVDEAT,8.33
14,SVPKLCA,0.562
15,SKNLICT,> 21
16,NDNWMPV,3.19
17,KTTLQSN,772
18,AAGPRWL,> 36
19,RNTCVLQ,36.3
20,VFPRLQS,> 61
21,SCEVFRH,2.64
22,SGSAILT,> 65
23,HRQYLYC,2.38
24,ARGELDA,> 52
25,YTRTERG,7.33

row,Substance,substrate phage enrichment score
1,KSMHKHA,1
2,LNSESQS,1.9
3,RSSDPSF,2.45
4,SNCSQLQ,> 23
5,VGRLGIV,> 26
6,TRHHHHG,3.5
7,LVRPHII,0.63
8,GGGGGGG,0.769
9,YEHSPEA,2
10,TSLQGTT,> 26
11,PLCVTLQ,> 29
12,VSGWTEI,5.75
13,MELEHTF,1.3
14,VSGAAPC,> 28
15,LKAAHHH,0.784
16,STSDVVR,2.64
17,EYCHGMS,0.0769
18,RNAAAHH,2.4
19,GTLKTEA,0.25
20,GWYQGDN,> 33
21,ALHGTRC,0.529
22,IETRLSV,> 21
23,FSCLPGP,6.8
24,AASVSLQ,> 23
25,IPIHCDR,3.37
